Results: PMC3050027 (Molecular cell, 2010)

Target: the molecule itself
Assay: SEC

B1: BAX(K21E, E69K) (natural protein)
chain: not shown
binding result: binds

B2: BAX(E69K) (natural protein)
chain: not shown
binding result: binds
